The values that follow come from ChEMBL document CHEMBL4888484, “Replenishing the malaria drug discovery pipeline: Screening and hit evaluation of the MMV Hit Generation Library 1 (HGL1) against asexual blood stage Plasmodium falciparum ,using a nano luciferase reporter read-out” (2022).

Out of some 150,000 compounds screened, about 540 (0.36%) showed an effect of 50% or more. This is one part of the list.

In the test the test system is Plasmodium falciparum. The test can be described thus: Primary screen in NF54 nanoGlo assay, in single point, at 2uM, 72h; a lower Z score goes with more inhibition. The conditions noted are these: timepoint 72 hour. It counts as functional, Erythrocyte.
As usually defined, the % Inhibition is the change of the read-out against control, counted positive when it falls. As for `CN(C)Cc1nc(C(=O)N[C@H]2CC[C@@H]3CCC[C@@H]32)cs1`, the “% Inhibition” value was 2% and the Z score was -0.32.

As for `CN1C(=O)COC12CCN(C(=O)c1cnc3cc[nH]c3c1)CC2`, the “% Inhibition” value was -6% and the Z score is given as 0.95.

Take `O=C(c1conc1C1CC1)N1CCC[C@H](CC(F)(F)F)C1`: the “% Inhibition” value is -3% and the Z score is listed as 0.62.

On to `COC[C@H]1CCCN(C(=O)NCc2ccc(C)s2)CC1`, for which the “% Inhibition” value is -6% and the Z score stood at 0.72.

Take `Cc1cc(-c2ccc(C(=O)NC[C@H](O)CO)cc2)nc2cc3c(cc12)CCC3`: the “% Inhibition” value is -1% and the Z score amounted to 0.22.

Consider `CCc1nnc(NC(=O)NCc2cc(C)no2)s1`, for which the “% Inhibition” value is 2% and the Z score was -0.42.

In the case of `CCc1nnc(NCCc2nc(C)c(Cl)s2)o1`, the “% Inhibition” value is -12% and the Z score is given as 1.3.

For the molecule `CCN1C[C@H](NC(=O)c2ccncc2C)[C@@H](OC)C1`, the “% Inhibition” value was -18% and the Z score turned out to be 1.59.

For `COc1cccc(OCCN2Cc3nc(C)nc(O)c3C2)c1`, the “% Inhibition” value is -10% and the Z score is 1.34.

`Cc1nc(CN)cc(NCCNc2ccccc2)n1`: the “% Inhibition” value was -33% and the Z score came out at 2.92.

Consider `Cc1cccc(OC2CCN(C(=O)c3ccn(C)c(=O)c3)CC2)c1`, for which the “% Inhibition” value is given as 6% and the Z score is recorded as -1.16.

On to `CCn1nc(-c2cccc(C(=O)N3CCc4n[nH]cc4C3)c2)nc1N(C)C`, for which the “% Inhibition” value is given as -1% and the Z score amounted to 0.13.

As for `O=C1C[C@@H]2CCN(C3CCOCC3)C[C@@H]2CCOc2ccc(C(F)(F)F)cc2N1`, the “% Inhibition” value is -12% and the Z score was 1.86.

Take `CN(CC(=O)N(C)C1CCCCC1)C(=O)c1cc2cccn2cn1`: the “% Inhibition” value is listed as -4% and the Z score amounted to 0.77.

Regarding `O=C(CN1CCN(C(=O)CN(CC2CCCCC2)C2CC2)CC1)Nc1ccccc1C(F)(F)F`, the “% Inhibition” value was -4% and the Z score was found to be 0.51.

Turning to `COCCn1cc(-c2c(C)nc3ccccn23)cn1`, the “% Inhibition” value is recorded as -9% and the Z score is 1.16.

As to `Cc1c(C#N)c(-c2ccccc2)nc(/C=C(/O)c2ccccc2)c1C(=O)NCc1ccccc1`, the “% Inhibition” value is 3% and the Z score is recorded as -0.4.

Take `NC(=O)N1CCC[C@H]1C(=O)NCc1cc(F)c(Cl)cc1F`: the “% Inhibition” value is -6% and the Z score was 0.77.

For the molecule `COc1ccc(C(=O)NC(=N)c2ccccc2)cc1`, the “% Inhibition” value is recorded as -14% and the Z score was found to be 1.83.

As to `Cc1cc(S(=O)(=O)N2C[C@H]3CC[C@@H](C2)[C@H]3N)c(C)s1`, the “% Inhibition” value is reported as -12% and the Z score is on record as 1.16.

On to `c1ccc2nc(N3CCCOCC3)cnc2c1`, for which the “% Inhibition” value was -3% and the Z score was found to be 0.31.

As to `CCOC(=O)N1CCC(NC(=O)c2occc2C)CC1`, the “% Inhibition” value is on record as -6% and the Z score is reported as 1.08.

As to `CCc1nccc(CN2CCC(CCC(N)=O)CC2)n1`, the “% Inhibition” value is recorded as -5% and the Z score is 1.07.

With `CCc1nc2ccccc2n1[C@@H](CC)C(=O)N1CCC(n2cnnc2)CC1`, the “% Inhibition” value is -8% and the Z score amounted to 1.36.

Turning to `COc1c(Br)cccc1CCNC(=O)CC(F)(F)F`, the “% Inhibition” value was -5% and the Z score was 0.77.

For `CC1(c2noc(C3=NN(Cc4ccc(F)cc4)C(=O)CC3)n2)CCC1`, the “% Inhibition” value is given as -7% and the Z score is recorded as 1.3.

As for `Cc1nc2ccccc2n1Cc1cc(C(=O)N2CCCCO2)n[nH]1`, the “% Inhibition” value is on record as -31% and the Z score is 5.84.

Consider `COc1ccc(CN2C(=O)COC[C@H]2C(=O)NCc2ccccc2F)c(OC)c1`, for which the “% Inhibition” value amounted to 1% and the Z score was -0.06.

For the molecule `COc1cccc(CC(=O)N(Cc2ccc(F)cc2)Cc2nc3cc(Cl)ccc3o2)c1`, the “% Inhibition” value is on record as -8% and the Z score was determined as 0.91.

In the case of `COC(=O)C1(N(C)CC(=O)N2CC(=O)NC(=O)C23CCCCC3)CCCC1`, the “% Inhibition” value is reported as -1% and the Z score amounted to 0.19.

On to `COC(=O)[C@@H]1C[C@H](O)CCN1C(=O)c1cnc2ccccc2n1`, for which the “% Inhibition” value is recorded as -6% and the Z score came out at 0.6.

Regarding `CN(C)c1ccc(NS(=O)(=O)c2cccc(F)c2)cn1`, the “% Inhibition” value is 14% and the Z score is recorded as -2.17.

`O=C([C@@H]1CCc2cccc(O)c21)N1CC(O)(C(F)(F)F)C1`: the “% Inhibition” value came to 0% and the Z score came to 0.09.

Turning to `Cc1nn(C)c(C)c1CC(=O)Nc1ccnn1C(C)C`, the “% Inhibition” value was -2% and the Z score was 0.22.

For the molecule `CS(=O)(=O)CCCC(=O)N1CCCCC[C@H]1C=Cc1ccccc1`, the “% Inhibition” value is -7% and the Z score stood at 0.73.

Consider `CN1C(=O)C[C@H](C(=O)O)C12CCN(Cc1cccc(-c3ccccc3)c1)CC2`, for which the “% Inhibition” value was -12% and the Z score worked out at 1.78.

Consider `Cc1cnc(C(=O)N2C(C)CN(C(=O)OC(C)(C)C)C(C)C2C)cn1` (stereo unspecified), for which the “% Inhibition” value was -7% and the Z score was 1.02.

Turning to `CCc1nc(C)nc(N2CCN(C(=O)[C@H]3CCOC3)CC2)c1Cc1cccc(OC)c1`, the “% Inhibition” value is -8% and the Z score is on record as 1.5.

For `Cc1ccc(C(=O)Nc2ccnn2CCN(C)C)cc1-c1cnn(C)c1`, the “% Inhibition” value is on record as -17% and the Z score turned out to be 1.76.

For `Cc1c(-c2ccc(OCc3ccccc3)cc2)[nH]c2ccc(OCc3ccccc3)cc12`, the “% Inhibition” value is -9% and the Z score is on record as 0.97.

Regarding `CN1C(=O)Cc2cc(-c3csc(-c4ccco4)n3)ccc21`, the “% Inhibition” value is -6% and the Z score is on record as 0.88.

For `O=C(C(c1ccccc1)c1ccccc1)N1CCCc2ccccc21`, the “% Inhibition” value was found to be 1% and the Z score is on record as -0.09.

`C=CCN1CCN(C(=O)NC2CCCC2)CC1`: the “% Inhibition” value was 0% and the Z score is 0.07.
